Reference: patent US10548901B2, “Meloxicam for the treatment of respiratory diseases in pigs” (Boehringer Ingelheim Vetmedica GmbH, priority 2004, dated 2020)
Read-outs that look alike come from different tables or passages of the source.

Tests used:
[1] = system: endotoxin-induced respiratory failure; conditions: pigs; cited from earlier work
[2] = clinical field study; cited from earlier work
[3] = system: Actinobacillus pleuropneumoniae; conditions: pigs; cited from earlier work
[4] = system: Swine Influenza Virus (SIV); assay type: in vivo, pigs

In the case of COc1ccc2c(c1)c(CC(=O)O)c(C)n2C(=O)c1ccc(Cl)cc1 [Indomethacin], the “experimental endotoxin-induced respiratory failure” value [1] is listed as “alleviated”.

In the case of CC(C(=O)O)c1cccc(C(=O)c2ccccc2)c1 (stereo not drawn) [Ketoprofen], the “effect on clinical score, relapse, or cure rate” value [2] is listed as “no effect”.

For Cc1c(Nc2ncccc2C(=O)O)cccc1C(F)(F)F [flunixin], the “effects on lung lesions” value [3] is listed as “no effects”.

In the case of Cc1cnc(NC(=O)C2=C(O)c3ccccc3S(=O)(=O)N2C)s1 [meloxicam, 4-hydroxy-2-methyl-N-(5-methyl-2-thiazolyl)-2H-1,2-benzothiazine-3-carboxamide-1,1-dioxide], the “mean daily weight gain” value ([4]; interval study day 0 to 7, group A, control 257 g) is reported as 557 g, the “mean daily weight gain” value ([4]; interval study day 0 to 14, group B, control 486 g) is reported as 629 g and the “percentage of lung tissue affected with SIV-related lesions (median value)” value ([4]; study day 7, meloxicam granules in drinking water, 0.8 mg/kg/day for 7 days, control 23.8%) is reported as 8.9%.
